These results are taken from the supplement of paper PMC10441789.

The other results are listed elsewhere or left out. Antibody binding of pooled human sera (four to six donors per pool; dilution not stated) to peptides of the Trypanosoma cruzi antigen TSSA on microarrays. Quantile-normalised fluorescence in arbitrary units, mean of duplicate arrays; higher = more binding. No active / inactive call. The uninfected pools are read here as the healthy donors of the same country. The strongest signals lie near the top of the scale (about 60,000).

For the assay, the system named is pooled sera of uninfected people, Colombia. As to the kind of experiment: antibody binding signal (normalised fluorescence) (arbitrary fluorescence units); higher = stronger serum antibody binding to peptide. How it is done:
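Microarray of 15-residue peptides over residues 30-55 of Trypanosoma cruzi TSSAII, each with 1 to 10 substitutions at naturally variable positions, probed with one serum pool per country.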
For the sequence KTATGEAPSQSGASS, the antibody binding signal was 163. KDNKAAAGEAPSPPG gave an antibody binding signal of 146. NKAATGGAPSQPGAS returned an antibody binding signal of 460. PPSGKDNKTATGETP gave an antibody binding signal of 347. For the sequence DNKAAAGETPSQPGA, the antibody binding signal was found to be 231.

As for KDNKPATGGAPSQSG, the antibody binding signal was 236. For the sequence SSTPPSGTDKKAATG, the antibody binding signal was 396. As to SGKDNKPAAGGTPSP, the antibody binding signal came to 870. In turn, SGKDNKTAAGGAPSQ had an antibody binding signal of 521. Consider DKKAATGEAPSQPGA, for which the antibody binding signal is 528. Sequence KENKAATGEAPSQPG returned an antibody binding signal of 123.

SGTENKTAAGGTPSP yielded an antibody binding signal of 557.

In turn, TPPSGTEKKTAAGEA came in with an antibody binding signal of 153.

SGKEKKPATGETPSP yielded an antibody binding signal of 180. Regarding SGKEKKAATGEAPSP, the antibody binding signal stood at 245. TISTPPSGKDNKAAT showed an antibody binding signal of 175. The sequence GTENKAAAGGAPSQS displayed an antibody binding signal of 201. Under KENKPATGGTPSPSG stands 167; under KDNKTAAGETPSPPG, 237. Take GKEKKTATGETPSPP: the antibody binding signal was determined as 123.

Consider KDNKTATGGAPSPPG, for which the antibody binding signal turned out to be 173. Sequence GKENKTAAGETPSPP registered an antibody binding signal of 145.

For the sequence TENKAATGGTPSPPG, the antibody binding signal was 318. On to GKEKKAATGGTPSPS, for which the antibody binding signal came out at 221.

TISTPPSGTENKTAA displayed an antibody binding signal of 1070.

Take SGTDNKAAAGGAPSP: the antibody binding signal worked out at 314.

As for NKAAAGEAPSQPGAS, the antibody binding signal turned out to be 432. On to TDNKAAAGEAPSPPG, for which the antibody binding signal turned out to be 80.9.

The sequence PPSGKEKKPAAGGTP registered an antibody binding signal of 235. In the case of GTENKAATGGAPSQP, the antibody binding signal was determined as 682. Under SGTDNKPATGETPSQ stands 224. The sequence KEKKTAAGETPSPPG showed an antibody binding signal of 337.

DNKPAAGEAPSQPGA showed an antibody binding signal of 167. Under KKTATGGAPSQSGAS stands 87.6; under ENKTATGGTPSPSGA, 639. The sequence GTENKTATGGTPSQP displayed an antibody binding signal of 251.

As for PPSGTEKKAATGEAP, the antibody binding signal stood at 574.

In turn, GKDKKTAAGETPSQP came in with an antibody binding signal of 284. KKPATGETPSQSGAS displayed an antibody binding signal of 139. Sequence STPPSGKDKKPATGG displayed an antibody binding signal of 190.
